To fix the notation:
B1: GPR68, Q15743 (parent)
chain: MGNITADNSSMSCTIDHTIHQTLAPVVYVTVLVVGFPANCLSLYFGYLQIKARNELGVYLCNLTVADLFYICSLPFWLQYVLQHDNWSHGDLSCQVCGILLYENIYISVGFLCCISVDRYLAVAHPFRFHQFRTLKAAVGVSVVIWAKELLTSIYFLMHEEVIEDENQHRVCFEHYPIQAWQRAINYYRFLVGFLFPICLLLASYQGILRAVRRSHGTQKSRKDQIQRLVLSTVVIFLACFLPYHVLLLVRSVWEASCDFAKGVFNAYHFSLLLTSFNCVADPVLYCFVSETTHRDLARLRGACLAFLTCSRTGRAREAYPLGAPEASGKSGAQGEEPELLTKLHPAFQTPNSPGSGGFPTGRLA

In data set [1] the parent is B1. The data set can be described thus: cAMP reporter score (Enrich2 score, wild type = 0); higher = more signal; HEK293T, FACS bins.
Variants of B1 are the subject of data set [2]. The data set can be described thus: surface expression score (Enrich2 score, wild type = 0); higher = more signal; HEK293T, FACS bins.

Scores whose standard error is large were omitted. Not listed are two conditions whose scores span a narrow range. Read del as a deletion of the residues named and ins as an insertion between two positions. For some of these results: How much ogerin was present is not stated here.

Results on 31 variants are retold here after the GPR68 mutational scans of Howard et al. (2025).

Take F196_P197insG: the cAMP reporter score in data set [1] (pH 5.5) is 0.009; in data set [1] (pH 6), -1.1; in data set [1] (pH 6.5, modulator: ogerin), -0.812. Also, the surface expression score in data set [2] is -2.38.

In the case of Q206_I208del, the cAMP reporter score in data set [1] (pH 5.5) is -1.55; in data set [1] (pH 6) it was -1.45; in data set [1] (pH 6, modulator: ogerin), -0.933; in data set [1] (pH 6.5, modulator: ogerin) it was -1.27. Further, the surface expression score in data set [2] is -2.48.

As to I198_C199insGS, the cAMP reporter score is -1.46 in data set [1] (pH 5.5); -1.27 in data set [1] (pH 6); -1.78 in data set [1] (pH 6, modulator: ogerin); -1.27 in data set [1] (pH 6.5, modulator: ogerin). Besides, the surface expression score in data set [2] is -2.31.

As to G217M, the cAMP reporter score in data set [1] (pH 5.5) is -1.01; in data set [1] (pH 6), -0.213; in data set [1] (pH 6, modulator: ogerin) it was -1.16; in data set [1] (pH 6.5, modulator: ogerin), -0.703. Further, the surface expression score in data set [2] was -0.181.

For the variant G217V, the cAMP reporter score in data set [1] (pH 5.5) was -0.145; in data set [1] (pH 6), 0.405; in data set [1] (pH 6, modulator: ogerin) it was -0.14; in data set [1] (pH 6.5, modulator: ogerin), -1.09. Besides, the surface expression score in data set [2] turned out to be 0.493.

Regarding G217E, the cAMP reporter score in data set [1] (pH 5.5) is -1.18; in data set [1] (pH 6) it was -1.27; in data set [1] (pH 6, modulator: ogerin), -1.22; in data set [1] (pH 6.5, modulator: ogerin), -0.71. Moreover, the surface expression score in data set [2] stood at 0.249.

Turning to G217Y, the cAMP reporter score in data set [1] (pH 5.5) was -0.29; in data set [1] (pH 6), -0.471; in data set [1] (pH 6, modulator: ogerin) it was -0.928; in data set [1] (pH 6.5, modulator: ogerin) it was -0.657. Further, the surface expression score in data set [2] is -0.992.

As to G217P, the cAMP reporter score in data set [1] (pH 5.5) is -0.353; in data set [1] (pH 6), -0.057; in data set [1] (pH 6, modulator: ogerin) it was -0.422; in data set [1] (pH 6.5, modulator: ogerin), -0.167. The surface expression score in data set [2] is -0.362.

Regarding G217W, the cAMP reporter score in data set [1] (pH 5.5) is 0.594; in data set [1] (pH 6), -0.695; in data set [1] (pH 6, modulator: ogerin) it was -0.097; in data set [1] (pH 6.5, modulator: ogerin), -0.7. Moreover, the surface expression score in data set [2] is -0.094.

G217R: the cAMP reporter score in data set [1] (pH 5.5) is -1.2; in data set [1] (pH 6, modulator: ogerin) it was -1.16; in data set [1] (pH 6.5, modulator: ogerin), -0.772. Besides, the surface expression score in data set [2] was 0.587.

For G217T, the cAMP reporter score in data set [1] (pH 5.5) was -1.08; in data set [1] (pH 6), -1.98; in data set [1] (pH 6.5, modulator: ogerin), -0.442.

With G217I, the cAMP reporter score in data set [1] (pH 5.5) is -0.75; in data set [1] (pH 6), -0.633; in data set [1] (pH 6, modulator: ogerin) it was -1.97; in data set [1] (pH 6.5, modulator: ogerin) it was -0.549. Also, the surface expression score in data set [2] was -0.114.

G217L: the cAMP reporter score in data set [1] (pH 5.5) is -0.961; in data set [1] (pH 6) it was -0.497; in data set [1] (pH 6, modulator: ogerin) it was -0.709; in data set [1] (pH 6.5, modulator: ogerin), -1.37. Also, in data set [2], the surface expression score stood at 0.159.

As for G217C, the cAMP reporter score in data set [1] (pH 5.5) was -0.666; in data set [1] (pH 6), -1.08; in data set [1] (pH 6, modulator: ogerin) it was -0.868; in data set [1] (pH 6.5, modulator: ogerin), -1.35. The surface expression score in data set [2] is -0.399.

As to G217H, the cAMP reporter score in data set [1] (pH 5.5) is -0.978; in data set [1] (pH 6), -0.264; in data set [1] (pH 6, modulator: ogerin), -0.335; in data set [1] (pH 6.5, modulator: ogerin) it was -1.32. Moreover, the surface expression score in data set [2] is -0.454.

With G217F, the cAMP reporter score in data set [1] (pH 5.5) was 0.947; in data set [1] (pH 6) it was -1.87; in data set [1] (pH 6, modulator: ogerin), 0.918; in data set [1] (pH 6.5, modulator: ogerin) it was -0.445.

For the variant G217A, the cAMP reporter score in data set [1] (pH 5.5) is -0.362; in data set [1] (pH 6), -0.669; in data set [1] (pH 6, modulator: ogerin), -1.71; in data set [1] (pH 6.5, modulator: ogerin) it was -0.353. The surface expression score in data set [2] came out at 0.144.

On to G217S, for which the cAMP reporter score in data set [1] (pH 5.5) was 0.991; in data set [1] (pH 6) it was -1.09; in data set [1] (pH 6, modulator: ogerin) it was 0.297; in data set [1] (pH 6.5, modulator: ogerin), -0.796. In addition, in data set [2], the surface expression score was 0.598.

As for G217K, the cAMP reporter score is -0.708 in data set [1] (pH 5.5); -1.11 in data set [1] (pH 6); -1.22 in data set [1] (pH 6, modulator: ogerin); -0.819 in data set [1] (pH 6.5, modulator: ogerin). The surface expression score in data set [2] came to 0.217.

Turning to G217D, the cAMP reporter score in data set [1] (pH 5.5) is -1.48; in data set [1] (pH 6) it was 0.638; in data set [1] (pH 6, modulator: ogerin), -1.61; in data set [1] (pH 6.5, modulator: ogerin), -1.49. Besides, the surface expression score in data set [2] came to 0.469.

As for G217N, the cAMP reporter score was -0.616 in data set [1] (pH 5.5); -0.18 in data set [1] (pH 6); -1.47 in data set [1] (pH 6, modulator: ogerin); -0.198 in data set [1] (pH 6.5, modulator: ogerin). The surface expression score in data set [2] was determined as 0.572.

In the case of G217Q, the cAMP reporter score is -1.22 in data set [1] (pH 5.5); -0.632 in data set [1] (pH 6); -1.96 in data set [1] (pH 6, modulator: ogerin); -1.23 in data set [1] (pH 6.5, modulator: ogerin). Besides, the surface expression score in data set [2] was -0.535.

Regarding K220_S221del, the cAMP reporter score in data set [1] (pH 5.5) was -1.33; in data set [1] (pH 6) it was -0.74; in data set [1] (pH 6, modulator: ogerin), -1.6; in data set [1] (pH 6.5, modulator: ogerin), -0.618. The surface expression score in data set [2] was -0.732.

As for G207_L209del, the cAMP reporter score in data set [1] (pH 5.5) was -2.38; in data set [1] (pH 6.5, modulator: ogerin), -2.85. Besides, the surface expression score in data set [2] is -3.35.

As for Q206del, the cAMP reporter score in data set [1] (pH 5.5) was -1.21; in data set [1] (pH 6), -1.14; in data set [1] (pH 6, modulator: ogerin), -1.5; in data set [1] (pH 6.5, modulator: ogerin), -1.19. In addition, the surface expression score in data set [2] was -2.21.

For R222L, the cAMP reporter score in data set [1] (pH 5.5) is 0.702; in data set [1] (pH 6), 1.08; in data set [1] (pH 6, modulator: ogerin), 1.32; in data set [1] (pH 6.5, modulator: ogerin) it was 1.59. Further, the surface expression score in data set [2] is -0.257.

Regarding R222M, the cAMP reporter score in data set [1] (pH 5.5) worked out at 1.36; in data set [1] (pH 6), 2.35; in data set [1] (pH 6, modulator: ogerin) it was 1.54; in data set [1] (pH 6.5, modulator: ogerin), 0.64. Moreover, in data set [2], the surface expression score came out at 0.445.

For R222E, the cAMP reporter score was 0.995 in data set [1] (pH 5.5) and 2.33 in data set [1] (pH 6, modulator: ogerin). Further, the surface expression score in data set [2] was 1.41.

Consider R222N, for which the cAMP reporter score was 0.83 in data set [1] (pH 5.5); -0.27 in data set [1] (pH 6); 0.855 in data set [1] (pH 6, modulator: ogerin); 0.143 in data set [1] (pH 6.5, modulator: ogerin). In addition, in data set [2], the surface expression score is 1.02.

R222D: the cAMP reporter score was -0.133 in data set [1] (pH 5.5); 0.395 in data set [1] (pH 6, modulator: ogerin); 2.58 in data set [1] (pH 6.5, modulator: ogerin). Moreover, the surface expression score in data set [2] is -0.016.

On to R222Y, for which the cAMP reporter score was 0.947 in data set [1] (pH 5.5); -0.541 in data set [1] (pH 6); 1.3 in data set [1] (pH 6, modulator: ogerin); 0.665 in data set [1] (pH 6.5, modulator: ogerin). For the same variant, in data set [2], the surface expression score was -0.288.
